Assay results from patent publication US9045526B2 (THE REGENTS OF THE UNIVERSITY OF MICHIGAN, priority 2011, dated 2015).

Assays:
[1] = target: T1, mu-opioid receptor (MOR) (Rattus norvegicus, UniProt P33535); assay: [35S]GTPγS binding (G protein stimulation) at MOR; format: biochemical; details: for maximal [35S]GTPγS stimulation at MOR (% max): percent of stimulation by 10 μM DAMGO
T1 construct: expressed in transfected cells; host or cells: C6 rat glioma cells (C6-MOR), stably transfected

[2] = target: T2, kappa-opioid receptor (KOR) (Homo sapiens, UniProt P41145); assay: [35S]GTPγS binding (G protein stimulation) at KOR; format: biochemical; details: for [35S]GTPγS stimulation at KOR (% max): percent of standard U69,593
T2 construct: expressed in transfected cells

[3] = target: T3, delta-opioid receptor (DOR) (Rattus norvegicus, UniProt P33533); assay: [35S]GTPγS binding (G protein stimulation / antagonism of DPDPE) at DOR; format: biochemical; details: for [35S]GTPγS stimulation at DOR (% max): compared to DPDPE; for G protein stimulation at DOR, in words: up to 10 μM
T3 construct: expressed in transfected cells; host or cells: C6 rat glioma cells (C6-DOR), stably transfected

[4] = Cell permeability assay, Caco-2 monolayer, apical to basolateral; format: in vitro ADME; details: human; Caco-2, apical pH 6.4 to basolateral pH 7.4, 100 μM peptide; read-out: permeability coefficient (Papp)
Protocol: Cell Permeability Assay: Caco-2 cells at a passage line of 21 were seeded at a density of 0.3×10^5 cells/well on untreated culture inserts of polycarbonate membrane with 0.4 μm pores and a surface area of 1.12 cm^2. The culture inserts containing the Caco-2 cells were placed in a 12 transwell plate. The DMEM, high glucose culture medium, supplemented with 10% FBS, was generally changed every other day. Transport studies were performed 21 days after seeding upon full differentiation and the TEER values were stable at 500-600Ω cm^2. The study of transport from apical to basolateral was initiated by removal of medium from both sides of the monolayer and replacement with apical buffer, pH 6.4 (500 μL) and basolateral buffer, pH 7.4 (1500 μL), both warmed to 37° C. The cells were incubated for 15 minutes at 37° C., 5% CO2. The buffers were then removed and replaced with 500 μL 100 μM peptide in apical buffer on the apical side and 1500 μL basolateral buffer on the basolateral side, both prewarmed to 37° C. For the duration of the experiment, cells were kept at 37° C. except during the 100 μL sample removal from the basolateral side at predetermined times (15, 30, 45, 60, 75, 90 minutes). The samples were added to 200 μL 0.1% TFA in acetonitrile, and 100 μL of basolateral buffer was added to the basolateral side of the monolayer. […] Samples were analyzed by HPLC.

[5] = target: T3, delta-opioid receptor (DOR); assay: Whole cell inhibition of forskolin-stimulated adenylyl cyclase, C6-DOR cells; format: cell-based
[6] = target: T1, mu-opioid receptor (MOR); assay: Whole cell inhibition of forskolin-stimulated adenylyl cyclase at MOR; format: cell-based; details: read-out: inhibition of forskolin-stimulated cAMP at MOR

T1 sequence (P33535 whole entry): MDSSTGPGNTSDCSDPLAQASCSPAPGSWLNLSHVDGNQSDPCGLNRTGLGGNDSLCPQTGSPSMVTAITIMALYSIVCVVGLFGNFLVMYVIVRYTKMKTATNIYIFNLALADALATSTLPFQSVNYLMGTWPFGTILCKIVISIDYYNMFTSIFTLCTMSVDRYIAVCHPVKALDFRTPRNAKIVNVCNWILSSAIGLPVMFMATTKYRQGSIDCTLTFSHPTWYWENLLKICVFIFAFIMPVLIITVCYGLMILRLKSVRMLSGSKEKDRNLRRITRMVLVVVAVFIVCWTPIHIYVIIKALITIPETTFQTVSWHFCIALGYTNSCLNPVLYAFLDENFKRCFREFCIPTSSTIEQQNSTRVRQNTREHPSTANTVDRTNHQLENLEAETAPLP
T2 sequence (P41145 whole entry): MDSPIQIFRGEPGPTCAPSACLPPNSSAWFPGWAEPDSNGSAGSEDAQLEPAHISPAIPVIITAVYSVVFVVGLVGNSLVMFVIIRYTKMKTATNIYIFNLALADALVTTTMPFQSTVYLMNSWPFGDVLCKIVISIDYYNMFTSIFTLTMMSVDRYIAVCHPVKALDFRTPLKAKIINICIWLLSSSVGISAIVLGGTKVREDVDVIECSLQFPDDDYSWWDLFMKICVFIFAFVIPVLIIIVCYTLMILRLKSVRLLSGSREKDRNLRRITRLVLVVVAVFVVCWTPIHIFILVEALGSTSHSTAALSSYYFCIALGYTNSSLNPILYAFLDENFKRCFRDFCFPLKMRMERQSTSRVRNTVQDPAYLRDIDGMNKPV
T3 sequence (P33533 whole entry): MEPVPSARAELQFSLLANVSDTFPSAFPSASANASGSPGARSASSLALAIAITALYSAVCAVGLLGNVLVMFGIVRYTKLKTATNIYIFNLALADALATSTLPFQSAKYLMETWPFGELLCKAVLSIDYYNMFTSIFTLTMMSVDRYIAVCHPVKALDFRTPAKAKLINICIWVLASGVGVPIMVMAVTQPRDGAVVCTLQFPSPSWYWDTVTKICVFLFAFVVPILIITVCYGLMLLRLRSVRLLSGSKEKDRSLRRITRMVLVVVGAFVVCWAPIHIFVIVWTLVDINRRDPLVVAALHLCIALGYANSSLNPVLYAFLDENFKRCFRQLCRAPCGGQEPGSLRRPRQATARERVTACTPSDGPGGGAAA

Row | Structure (SMILES) | maximal [35S]GTPγS stimulation at MOR (% max) [1] [%] | [35S]GTPγS stimulation at KOR (% max) [2] [%] | [35S]GTPγS stimulation at DOR (% max) [3] [%] | G protein stimulation at DOR, in words [3] | EC50 [1] [nM] | further results
1 | Cc1cc(O)cc(C)c1C[C@H](N)C(=O)N[C@@H]1CSCCSC(C)(C)[C@H](C(N)=O)NC(=O)C2(Cc3ccccc3C2)NC1=O [Compound 1] (H-[Dmt][dC][Aic][dPen]-NH2; linker 2-4 via CH2CH2; N-terminus assumed) | 58 | 3 | 37 | either low efficacy partial agonists or produced no measureable G protein stimulation | – | –
2 | Cc1cc(O)cc(C)c1C[C@H](N)C(=O)N[C@@H]1CSCCSC(C)(C)[C@H](C(=O)N[C@@H](CCCNC(=N)N)C(N)=O)NC(=O)C2(Cc3ccccc3C2)NC1=O [VRP-24] (H-[Dmt][dC][Aic][dPen]R-NH2; linker 2-4 via CH2CH2) | 37.1±11 | – | – | either low efficacy partial agonists or produced no measureable G protein stimulation | – | –
3 | Cc1cc(O)cc(C)c1C[C@H](N)C(=O)N[C@@H]1CSCCSC(C)(C)[C@H](C(=O)N[C@@H](CO[C@@H]2O[C@H](CO)[C@@H](O)[C@H](O)[C@H]2O)C(N)=O)NC(=O)C2(Cc3ccccc3C2)NC1=O [VRP-26] (H-[Dmt][dC][Aic][dPen]S(βGlc)-NH2; linker 2-4 via CH2CH2; N-terminus assumed) | – | – | – | – | – | Papp A→B at 100 μM [4]: 134 ± 73 nm/s
4 | Cc1cc(O)cc(C)c1C[C@H](N)C(=O)N[C@@H]1CSCCSC(C)(C)[C@H](C(=O)N[C@@H](CO)C(N)=O)NC(=O)C2(Cc3ccccc3C2)NC1=O [VRP-19] (H-[Dmt][dC][Aic][dPen]S-NH2; linker 2-4 via CH2CH2) | 44±11 | – | – | either low efficacy partial agonists or produced no measureable G protein stimulation | – | –
5 | Cc1cc(O)cc(C)c1C[C@H](N)C(=O)N[C@@H]1CSCCSC(C)(C)[C@H](C(=O)O)NC(=O)C2(Cc3ccccc3C2)NC1=O [Compound 2] (H-[Dmt][dC][Aic][dPen]-OH; linker 2-4 via CH2CH2; N-terminus assumed) | 59 | – | – | – | 4.1 | shift in the EC50 for DPDPE-mediated inhibition of adenylyl cyclase ([5]; 100 nM compound): 9.5 fold; % of forskolin stimulation (cAMP) ([5]; 10 μM compound): 91%; Ke (adenylyl cyclase) relative to binding affinity to DOR ([5]; rat, c6-dor cells): 3 fold; potency at G protein stimulation relative to endomorphin-2 ([1]; MOR): 31 times; potency at G protein stimulation relative to morphine ([1]; MOR): 47 times; G protein stimulation at KOR, in words [2]: displayed no G protein stimulation; rightward shift in the DPDPE concentration-response curve ([35S]GTPγS) ([3]; 100 nM compound): 26 fold
6 | Cc1cc(O)cc(C)c1C[C@H](N)C(=O)N1Cc2ccccc2C[C@H]1C(=O)NCC(=O)NCc1ccccc1 [Dmt-Tic-Gly-NH-Bzl, reference compound] (HELM PEPTIDE1{[Cc1cc(O)cc(C)c1C[C@H](N)C(=O)[*:2]].[Tic].G.[c1ccc(CN[*:1])cc1]}$$$$V2.0; N-terminus assumed) | 7 | 5 | 21 | – | 1.4 | forskolin stimulation remaining at DOR (decreased from 100%) [5]: 72%; inhibition at 1 µM ([5]; read-out: inhibition of forskolin-stimulated cAMP at DOR): 28%; inhibition at 1 µM [6]: 35%; EC50 for [35S]GTPγS stimulation at DOR ([3]; compound alone): No EC50 could be calculated

Numbered stars: 1 amine (or outer) side, 2 acyl side, 3 side chain; on linkers, the order of the positions; unused ones are H or OH. Bridge positions count the residues as written; N and C are the ends. Square brackets hold non-standard residues; d marks the D form. Peptide text beside a SMILES is read from it. * marks the point of attachment. βGlc = OC[C@H]1O[C@@H](*)[C@H](O)[C@@H](O)[C@@H]1O; Dmt = Cc1cc(O)cc(C)c1C[C@H](N)C(=O)O; dPen = CC(C)(S)[C@@H](N)C(=O)O; Aic = NC1(C(=O)O)Cc2ccccc2C1; CH2CH2 = C(C[*:2])[*:1]
